Data: US9763922B2 (priority 2014, dated 2017)

Experiments:
[1] = target: BRD4 BD1 (Homo sapiens (Human), UniProt O60885); settings: read-out: BRD4 Alpha IC50
[2] = system: MYC; assay: cells; settings: Homo sapiens, MV4-11, 4 h, read-out: Myc IC50 (μM)

Row | SMILES | IC50 [1] [µM] | IC50 [2] [µM]
1 | Cn1cc(-c2cc(F)c(Nc3nn([C@H]4CCOC4)c4c3CN(C(N)=O)CC4)cc2C(F)F)cn1 [Example 257, 3-[7-chloro-6-(1-methylpyrazol-4-yl)-3,4-dihydro-2H-quinolin-1-yl]-N-methyl-1-tetrahydropyran-4-yl-6,7-dihydro-4H-pyrazolo[4,3-c]pyridine-5-carboxamide] | > 20 | 0.1
2 | CNC(=O)N1CCc2c(c(Nc3cc(C#N)c(-c4cnn(C)c4)cc3F)nn2C2CCOCC2)C1 [Example 269, 1-[3-[4-methyl-6-(1-methylpyrazol-4-yl)-7-(trifluoromethyl)-2,3-dihydroquinoxalin-1-yl]-1-tetrahydropyran-4-yl-6,7-dihydro-4H-pyrazolo[4,3-c]pyridin-5-yl]ethanone] | 18 | 0.22
3 | CC(=O)N1CCc2c(c(Nc3cc(C(F)F)c(-c4cnn(C)c4)cc3F)nn2C2COC2)C1 [Example 224, 1-[1-methyl-3-[N-methyl-4-[1-methyl-3-(trifluoromethyl)pyrazol-4-yl]anilino]-6,7-dihydro-4H-pyrazolo[4,3-c]pyridin-5-yl]ethanone] | 3.46 | 0.69
4 | CC(=O)N1CCc2c(c(Nc3cc(-c4cnn(C)c4)ccc3F)nn2C2CCOC2)C1 (centres unmarked) [Example 292, 1-[3-[2-fluoro-5-(1-methylpyrazol-4-yl)anilino]-1-tetrahydrofuran-3-yl-6,7-dihydro-4H-pyrazolo[4,3-c]pyridin-5-yl]ethanone] | 3.4 | 0.56
5 | CC(=O)N1CCc2c(c(Nc3ccc(-c4cccc(F)c4)cc3)nn2CC2CC2)C1 [Example 95, 1-[3-[4-methyl-6-(1-methylpyrazol-4-yl)-2,3-dihydroquinoxalin-1-yl]-1-[(3S)-tetrahydrofuran-3-yl]-6,7-dihydro-4H-pyrazolo[4,3-c]pyridin-5-yl]ethanone] | 3.57 | 1.04
6 | CC(=O)N1CCc2c(c(Nc3c(F)ccc(-c4cnn(C)c4)c3F)nn2C2CCOC2)C1 (centres unmarked) [Example 279, 1-[3-[2,6-difluoro-3-(1-methylpyrazol-4-yl)anilino]-1-tetrahydrofuran-3-yl-6,7-dihydro-4H-pyrazolo[4,3-c]pyridin-5-yl]ethanone] | 8.26 | 0.34
7 | CC(=O)N1CCc2c(c(Nc3ccc(-c4c(C)nn(C)c4C)cc3)nn2C)C1 [Example 113, (S, R)-1-[3-[3-methyl-6-(1-methylpyrazol-4-yl)-3,4-dihydro-2H-quinolin-1-yl]-1-tetrahydrofuran-3-yl-6,7-dihydro-4H-pyrazolo[4,3-c]pyridin-5-yl]ethanone] | 10.5 | 1.88
8 | CC(=O)N1CCc2c(c(Nc3cccc(C)c3)nn2C(C)C)C1 [Example 200, 1-[3-[3-ethyl-5-(1-methylpyrazol-4-yl)indolin-1-yl]-1-tetrahydrofuran-3-yl-6,7-dihydro-4H-pyrazolo[4,3-c]pyridin-5-yl]ethanone] | 15.8 | 1.48
9 | CC(=O)N1CCc2c(c(Nc3ccc(-c4cn(C)nc4C)cc3)nn2C)C1 [Example 111, (S, S)-1-[3-[4-methyl-6-(1-methylpyrazol-4-yl)-3,4-dihydro-2H-quinolin-1-yl]-1-tetrahydrofuran-3-yl-6,7-dihydro-4H-pyrazolo[4,3-c]pyridin-5-yl]ethanone] | 5.59 | 0.116
10 | CNC(=O)N1CCc2c(c(Nc3cc(C(F)F)c(-c4cnn(C)c4)cc3F)nn2C2CCS(=O)(=O)CC2)C1 [Example 273, (S)-1-[3-[3,4-dimethyl-6-(1-methylpyrazol-4-yl)-7-(trifluoromethyl)-2,3-dihydroquinoxalin-1-yl]-1-tetrahydropyran-4-yl-6,7-dihydro-4H-pyrazolo[4,3-c]pyridin-5-yl]ethanone] | 7.88 | 0.1
11 | CC(=O)N1CCc2c(c(Nc3cccc(-c4ccccn4)c3)nn2CC2CC2)C1 [Example 79, 1-[3-[6-(1-methylpyrazol-4-yl)-3,4-dihydro-2H-quinolin-1-yl]-1-(1-methylpyrrolidin-3-yl)-6,7-dihydro-4H-pyrazolo[4,3-c]pyridin-5-yl]ethanone] | 2.02 | 0.77
12 | CC(=O)N1CCc2c(c(Nc3ccc(-c4cnn(C)c4)cc3F)nn2C2COC2)C1 [Example 302, 1-[3-[2-fluoro-4-(1-methylpyrazol-4-yl)anilino]-1-(oxetan-3-yl)-6,7-dihydro-4H-pyrazolo[4,3-c]pyridin-5-yl]ethanone] | 8.25 | 0.56
13 | CC(=O)N1CCc2c(c(Nc3ccc(-c4ccn(C)n4)cc3)nn2C)C1 [Example 170, 1-[1-(cyclopropylmethyl)-3-[6-(1-methylpyrazol-4-yl)indolin-1-yl]-6,7-dihydro-4H-pyrazolo[4,3-c]pyridin-5-yl]ethanone] | 8.25 | 0.52
14 | CC(=O)N1CCc2c(c(Nc3ccc(-c4cnn(C5CC5)c4)cc3)nn2C)C1 [Example 153, 3-[7-cyano-6-(1-methylpyrazol-4-yl)-3,4-dihydro-2H-quinolin-1-yl]-1-tetrahydropyran-4-yl-6,7-dihydro-4H-pyrazolo[4,3-c]pyridine-5-carboxamide] | 5.36 | 0.64
15 | CC(=O)N1CCc2c(c(Nc3ccc(-c4cnn(C)n4)cc3F)nn2C2CCOC2)C1 (centres unmarked) [Example 290, 1-[3-[2-fluoro-4-(2-methyltriazol-4-yl)anilino]-1-tetrahydrofuran-3-yl-6,7-dihydro-4H-pyrazolo[4,3-c]pyridin-5-yl]ethanone] | 8.67 | 1.16
16 | CC(=O)N1CCc2c(c(Nc3ccc(-c4cccnc4OC(C)C)cc3)nn2C)C1 [Example 159, 3-[7-cyano-6-(1-methylpyrazol-4-yl)-3,4-dihydro-2H-quinolin-1-yl]-N-methyl-1-tetrahydropyran-4-yl-6,7-dihydro-4H-pyrazolo[4,3-c]pyridine-5-carboxamide] | 2.63 | 1.89
17 | CC(=O)N1CCc2c(c(Nc3ccc(F)c(-c4cnn(C)c4)c3)nn2C2CCOC2)C1 (centres unmarked) [Example 288, 1-[3-[4-fluoro-3-(1-methylpyrazol-4-yl)anilino]-1-tetrahydrofuran-3-yl-6,7-dihydro-4H-pyrazolo[4,3-c]pyridin-5-yl]ethanone] | 2.33 | 0.57
18 | CC(=O)N1CCc2c(c(Nc3cc(F)cc(-c4cnn(C)c4)c3)nn2C2CCOC2)C1 (centres unmarked) [Example 291, 1-[3-[3-fluoro-5-(1-methylpyrazol-4-yl)anilino]-1-tetrahydrofuran-3-yl-6,7-dihydro-4H-pyrazolo[4,3-c]pyridin-5-yl]ethanone] | 1.99 | 0.61
19 | CC(=O)N1CCc2c(c(Nc3ccc(-c4cn(C)nc4C(F)(F)F)cc3)nn2C)C1 [Example 112, (S, R)-1-[3-[4-methyl-6-(1-methylpyrazol-4-yl)-3,4-dihydro-2H-quinolin-1-yl]-1-tetrahydrofuran-3-yl-6,7-dihydro-4H-pyrazolo[4,3-c]pyridin-5-yl]ethanone] | 2.2 | 0.18
20 | CC(=O)N1CCc2c(c(Nc3ccc(-c4ccc(C)nc4)cc3)nn2C)C1 [Example 160, 3-[6-(1,5-dimethylpyrazol-4-yl)-3,4-dihydro-2H-quinolin-1-yl]-N-methyl-1-tetrahydropyran-4-yl-6,7-dihydro-4H-pyrazolo[4,3-c]pyridine-5-carboxamide] | 3.68 | 0.41
21 | CC(=O)N1CCc2c(c(Nc3ccc(-c4cncnc4)cc3)nn2C)C1 [Example 156, N-methyl-3-[6-(1-methylpyrazol-4-yl)-3,4-dihydro-2H-quinolin-1-yl]-1-[(3S)-tetrahydrofuran-3-yl]-6,7-dihydro-4H-pyrazolo[4,3-c]pyridine-5-carboxamide] | > 19.7 | 2.29
22 | CC(=O)N1CCc2c(c(Nc3ccc(-c4cn(C)nc4C(F)(F)F)cc3F)nn2CC2COC2)C1 [Example 303, 1-[3-[2-fluoro-4-[1-methyl-3-(trifluoromethyl)pyrazol-4-yl]anilino]-1-(oxetan-3-ylmethyl)-6,7-dihydro-4H-pyrazolo[4,3-c]pyridin-5-yl]ethanone] | 3.67 | 0.25
23 | CCNC(=O)Cn1nc(Nc2cccc(C)c2)c2c1CCN(C(C)=O)C2 [Example 190, 1-[3-[6-fluoro-5-(1-methylpyrazol-4-yl)indolin-1-yl]-1-tetrahydrofuran-3-yl-6,7-dihydro-4H-pyrazolo[4,3-c]pyridin-5-yl]ethanone] | 28.4 | 
24 | CC(=O)N1CCc2c(c(Nc3cccc(C)c3)nn2CCC2CCCN(C)C2)C1 (centres unmarked) [Example 216, 1-[3-[4-fluoro-5-(1-methylpyrazol-4-yl)indolin-1-yl]-1-methyl-6,7-dihydro-4H-pyrazolo[4,3-c]pyridin-5-yl]ethanone] | 6.89 | 
25 | CNC(=O)c1cccc(-c2ccc(Nc3nn(C)c4c3CN(C(C)=O)CC4)cc2)c1 [Example 150, 3-[6-(1-methylpyrazol-4-yl)-3,4-dihydro-2H-quinolin-1-yl]-1-[(3S)-tetrahydrofuran-3-yl]-6,7-dihydro-4H-pyrazolo[4,3-c]pyridine-5-carboxamide] | 3.52 | 
26 | CNCCn1cc(-c2ccc(Nc3nn(C)c4c3CN(C(C)=O)CC4)cc2)cn1 [Example 168, 1-[1-methyl-3-[6-(1-methylpyrazol-4-yl)indolin-1-yl]-6,7-dihydro-4H-pyrazolo[4,3-c]pyridin-5-yl]ethanone] | 10.2 | 
27 | CCCC(=O)N1CCc2c(c(Nc3ccc(-c4cnn(C)c4)c(C(F)F)c3)nn2C2CCOC2)C1 (centres unmarked) [Example 255, N-methyl-3-[7-methyl-6-(1-methylpyrazol-4-yl)-3,4-dihydro-2H-quinolin-1-yl]-1-tetrahydropyran-4-yl-6,7-dihydro-4H-pyrazolo[4,3-c]pyridine-5-carboxamide] | > 20 | 
28 | CC(=O)N1CCc2c(c(Nc3cccc(C4=CCCCC4)c3)nn2CC2CC2)C1 [Example 77, 1-[3-[6-(1-methylpyrazol-4-yl)-3,4-dihydro-2H-quinolin-1-yl]-1-pyrrolidin-3-yl-6,7-dihydro-4H-pyrazolo[4,3-c]pyridin-5-yl]ethanone] | 1.51 | 
